# No constants are given. Whether binding was seen depends on the method and setting. For part of these data: Binding seen in cells or lysates may run through a third protein. Some results given as binding are weak or reduced against the parent protein; the word gives no strength. For part of these data: Where a sequence is shown, tags or fusion partners need not be part of it.
# Chains of the proteins cited; added tags and fusions are not shown. Lines headed by an entry give the natural chain unless they say otherwise; changes in a name come on top. A line that says so, or that is headed by a name, gives the form on record, which may keep a tag or linker.
# UniProt P29590: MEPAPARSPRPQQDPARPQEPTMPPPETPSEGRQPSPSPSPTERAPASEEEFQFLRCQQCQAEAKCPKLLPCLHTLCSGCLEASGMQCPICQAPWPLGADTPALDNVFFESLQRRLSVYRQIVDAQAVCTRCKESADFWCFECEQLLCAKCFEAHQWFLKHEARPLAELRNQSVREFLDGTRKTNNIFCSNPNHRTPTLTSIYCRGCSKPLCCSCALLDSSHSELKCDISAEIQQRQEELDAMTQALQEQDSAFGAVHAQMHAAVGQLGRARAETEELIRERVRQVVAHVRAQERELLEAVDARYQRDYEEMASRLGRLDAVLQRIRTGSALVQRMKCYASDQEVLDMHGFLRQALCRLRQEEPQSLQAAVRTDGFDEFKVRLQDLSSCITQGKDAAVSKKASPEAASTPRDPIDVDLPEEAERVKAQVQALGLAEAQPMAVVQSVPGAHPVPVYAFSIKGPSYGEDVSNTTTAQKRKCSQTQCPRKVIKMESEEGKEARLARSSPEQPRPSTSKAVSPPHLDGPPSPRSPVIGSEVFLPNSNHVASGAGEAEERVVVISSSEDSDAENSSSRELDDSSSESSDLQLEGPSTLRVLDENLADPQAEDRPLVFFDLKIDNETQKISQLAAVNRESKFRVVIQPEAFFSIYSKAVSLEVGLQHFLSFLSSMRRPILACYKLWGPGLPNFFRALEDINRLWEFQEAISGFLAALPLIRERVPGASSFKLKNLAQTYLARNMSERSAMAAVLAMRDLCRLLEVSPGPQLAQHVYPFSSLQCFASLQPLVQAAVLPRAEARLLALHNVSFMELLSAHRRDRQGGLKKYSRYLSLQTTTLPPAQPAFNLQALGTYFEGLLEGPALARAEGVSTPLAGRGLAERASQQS
# N-terminally YFP-tagged human Sp100 isoform A (pYFP-Sp100A) (P23497, form named): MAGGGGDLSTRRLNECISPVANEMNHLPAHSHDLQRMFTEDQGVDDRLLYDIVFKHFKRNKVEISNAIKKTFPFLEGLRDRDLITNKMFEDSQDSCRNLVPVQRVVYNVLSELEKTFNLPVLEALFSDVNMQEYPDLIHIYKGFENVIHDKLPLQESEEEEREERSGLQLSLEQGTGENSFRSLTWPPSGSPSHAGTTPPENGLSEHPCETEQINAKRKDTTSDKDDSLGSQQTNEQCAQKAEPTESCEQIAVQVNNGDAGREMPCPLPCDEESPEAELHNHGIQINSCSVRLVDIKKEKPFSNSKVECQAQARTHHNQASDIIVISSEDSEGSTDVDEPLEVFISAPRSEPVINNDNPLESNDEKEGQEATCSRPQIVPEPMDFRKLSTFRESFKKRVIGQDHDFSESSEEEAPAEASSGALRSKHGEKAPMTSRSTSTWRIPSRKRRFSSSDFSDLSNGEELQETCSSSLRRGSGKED
# UniProt P63279: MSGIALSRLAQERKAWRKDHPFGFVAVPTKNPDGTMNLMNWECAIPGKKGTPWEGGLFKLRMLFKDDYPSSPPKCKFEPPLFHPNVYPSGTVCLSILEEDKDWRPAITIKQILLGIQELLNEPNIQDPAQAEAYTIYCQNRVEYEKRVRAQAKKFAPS
# T1: SUMO E3 ligase PIAS4, yeast two-hybrid fusion (UniProt Q8N2W9)
# T1 sequence: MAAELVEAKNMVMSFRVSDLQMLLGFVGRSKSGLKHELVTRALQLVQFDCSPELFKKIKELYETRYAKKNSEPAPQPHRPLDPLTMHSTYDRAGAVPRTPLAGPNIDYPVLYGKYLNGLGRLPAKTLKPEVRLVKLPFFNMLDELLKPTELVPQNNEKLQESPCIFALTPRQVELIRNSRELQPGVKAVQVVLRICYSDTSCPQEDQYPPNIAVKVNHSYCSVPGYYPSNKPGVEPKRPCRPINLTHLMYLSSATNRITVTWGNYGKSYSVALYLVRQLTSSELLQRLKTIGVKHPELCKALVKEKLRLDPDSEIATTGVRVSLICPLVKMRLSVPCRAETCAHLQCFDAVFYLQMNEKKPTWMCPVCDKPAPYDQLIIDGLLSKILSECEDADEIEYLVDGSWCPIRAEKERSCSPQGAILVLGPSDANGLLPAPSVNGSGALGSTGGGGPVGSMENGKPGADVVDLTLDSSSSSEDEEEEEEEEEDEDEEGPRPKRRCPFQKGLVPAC
# Experiments:
# [1] = molecular target: endogenous promyelocytic leukemia protein (PML) (human (endogenous in HepaRG)) (UniProt P29590); experiment: co-IP
# [2] = molecular target: T1, SUMO E3 ligase PIAS4, yeast two-hybrid fusion; experiment: two-hybrid
# [3] = molecular target: GFP-tagged wild-type E2A (pGFP-E2A-wt) (human adenovirus (HAdV); type not stated for the plasmid) (UniProt P03265); experiment: co-IP
# [4] = molecular target: N-terminally YFP-tagged human Sp100 isoform A (pYFP-Sp100A) (human) (UniProt P23497); experiment: co-IP
# [5] = molecular target: SUMO-conjugating enzyme Ubc9, yeast two-hybrid fusion (UniProt P63279); experiment: two-hybrid
molecule,measurement,setting,value
wild-type E2A expressed from pCMX3b-E2A (pE2A-wt) (from UniProt P03265 1-529),binding,[1],binds
"full-length adenoviral E2A (DNA binding protein, DBP), yeast two-hybrid fusion (from UniProt P03265 1-529)",binding,[2],no binding
endogenous Ubc9 (from UniProt P63279 1-158) (enzyme),binding,[3],binds
"E2A expressed during infection with HAdV wt (H5pg4100, HAdV-C5) (from UniProt P03265 1-529)",binding,[1],binds
same,binding,[4],binds
"SUMO E3 ligase PIAS4, yeast two-hybrid fusion (enzyme, UniProt Q8N2W9 1-510) MAAELVEAKNMVMSFRVSDLQMLLGFVGRSKSGLKHELVTRALQLVQFDCSPELFKKIKELYETRYAKKNSEPAPQPHRPLDPLTMHSTYDRAGAVPRTPLAGPNIDYPVLYGKYLNGLGRLPAKTLKPEVRLVKLPFFNMLDELLKPTELVPQNNEKLQESPCIFALTPRQVELIRNSRELQPGVKAVQVVLRICYSDTSCPQEDQYPPNIAVKVNHSYCSVPGYYPSNKPGVEPKRPCRPINLTHLMYLSSATNRITVTWGNYGKSYSVALYLVRQLTSSELLQRLKTIGVKHPELCKALVKEKLRLDPDSEIATTGVRVSLICPLVKMRLSVPCRAETCAHLQCFDAVFYLQMNEKKPTWMCPVCDKPAPYDQLIIDGLLSKILSECEDADEIEYLVDGSWCPIRAEKERSCSPQGAILVLGPSDANGLLPAPSVNGSGALGSTGGGGPVGSMENGKPGADVVDLTLDSSSSSEDEEEEEEEEEDEDEEGPRPKRRCPFQKGLVPAC",binding,[5],binds

# From publication PMC7078464
